From PubChem BioAssay AID1508624 (National Center for Advancing Translational Sciences (NCATS), 2021)
In all, about 48,000 compounds went through this assay and about 120 (0.25%) were called active. Another 4% or so got no clear call; they are omitted. Calls follow the shape of the dose curve; as a rule, active = well fitted activation curve with a large enough effect; inconclusive = small, poorly fitted or top-dose-only effect, or another doubt; inactive = no such curve, though single readings can be large or run the other way. Some of the results follow.

Experiment: Primary qHTS for Identification of Small Molecule Activators of Huntingtin-Antisense Promoter Activity; also: nearly all actives have a fitted effect of over 55% in size
Conditions: HEK293 HTT-AS promoter firefly luciferase reporter, 24 h; series mostly up to 57.5 µM; activity change, positive = activation: at the top concentration
Text: Assay Provider: Russell L. Margolis M.D.
Department Neurology, Johns Hopkins University School of Medicine, Baltimore, MD
Huntington's Disease (HD) is a neurodegenerative disorder caused by a CAG repeat expansion in exon 1 of huntingtin (HTT). While there are currently no disease-modifying treatments for HD, recent efforts have focused on development of nucleotide-based therapeutics to lower HTT expression. As an alternative to siRNA or oligonucleotide methods, we hypothesized that suppression of HTT expression might be accomplished by small molecules that either (1) directly decrease HTT expression by suppressing HTT promoter activity or (2) indirectly decrease HTT expression by increasing the promoter activity of HTT-AS, the gene antisense to HTT that appears to inhibit expression of HTT.
We developed and employed a high throughput screen for modifiers of HTT and HTT-AS promoter activity using luminescent reporter HEK293 cells; of the 52,041 compounds tested, we identified 898 replicable hits. We used a rigorous stepwise approach to assess compound toxicity and the capacity of the compounds to specifically lower huntingtin protein in 5 different cell lines, including HEK293 cells, HD lymphoblastoid cells, mouse primary neurons, HD iPSCs differentiated into cortical-like neurons, and HD hESCs. We found no compounds which were able to lower huntingtin without lowering cell viability in all assays, though the potential efficacy of a few compounds at non-toxic doses could not be excluded.
SEQUENCE No. (1, 2, 3, etc.); […] (e.g., Cells, Incubation, Reagent, etc.); VALUE and DESCRIPTION.
1; Reagent; 4 uL; 2,500 Hek293 luciferase reporter cells per wells
3; Compound; 23 nL; Control inhibitor / compound library
5; Reagent; 2.5 uL; Firefly Luc reagent; Dual-Glo Luciferase Reporter Assay System (Promega)
6; Time; 10 min; room temperature incubation
7; Detection; Luminescence; FLuc
NOTES (numbers refer to sequence above)
1; High-throughput screening, measuring luminescence from a Hek293 luciferase reporter, was performed in 1,536 well white-walled tissue-culture treated plates. 2,500 cells were plated in 4 µL of Opti-MEM per well using a Multidrop Combi Reagent Dispenser (ThermoFisher).
2; Assay plates were cultured for 24 hours.
3; Control inhibitor (PTC124; final concentration of 50 uM) and compound library (at final concentrations of 460 nM - 57.5 uM) were added to the assay plate using the Kalypsis Pintool Robotic System equipped with 1536 pinheads.
4; Cells were then incubated for 24 hours at 37 degrees C prior to luminescence measurements.
5; In all cases, luminescence was measured using the Dual-Glo Luciferase Reporter Assay System (Promega) following the manufacturer's instructions.
6; Room temperature incubation.
7; Luminescence signal was obtained using the PerkinElmer ViewLux plate reader. Results were normalized to vehicle control (0% activity) and zero RLU (-100% activity).
Potency is read from the fitted curve at half-maximal effect.

Question: With `CCOC(=O)c1c(NC(=O)/C(C#N)=C/c2ccccc2)sc2c1CCC2` as the compound, how does the “activity change, positive = activation” value read?
Answer: The value was inactive: 9.78%.

Question: With `Cc1cc(C)cc(NC(=O)Nc2ccccc2OCc2cc(=O)n3ccccc3n2)c1` as the compound, how does the “activity change, positive = activation” value read?
Answer: Its value is inactive: 14.7%.

Question: For `CCOc1ccccc1NC(=O)c1c(NCc2cccs2)sc2c1CCCCC2`, which “activity change, positive = activation” value is on record?
Answer: The value was inactive: -23.8%.

Question: For `CCOc1ccc(NC(=O)c2c(NC(=O)c3ccccc3F)sc3c2CCC3)cc1`, which “activity change, positive = activation” value is on record?
Answer: Its value is inactive: -6.84%.

Question: With `CCOc1cc(/C=C(\C#N)C(=O)Nc2ccc(C)cc2)ccc1OCc1cc(=O)n2nc(CC)sc2n1` as the compound, how does the “activity change, positive = activation” value read?
Answer: Its value is inactive: -11.5%.

Question: Which “activity change, positive = activation” value does the source give for `Nc1ncnc2c1ncn2Cc1c(F)cccc1Cl` here?
Answer: The value was inactive: -5.51%.

Question: Which Potency does the source give for `Cc1ccc(NC(=O)c2cccc(N3CCCS3(=O)=O)c2)cc1C` here?
Answer: Its Potency is active: 2.24 µM.

Question: For `Cc1ccc(NC(=O)[C@H]2O[C@@H]3OC(C)(C)O[C@@H]3[C@H]3OC(C)(C)O[C@H]32)cc1F`, which “activity change, positive = activation” value is on record?
Answer: Its value is inactive: -5.53%.

Question: Which “activity change, positive = activation” value does the source give for `CC(C(=O)Nc1ccccc1C(F)(F)F)n1nnc2sc3c(c2c1=O)CCCC3` (stereo not given) here?
Answer: Its value is inactive: -8.78%.

Question: Which “activity change, positive = activation” value does the source give for `CCc1ccc(CNC(=O)CSc2c3c(nc4ccc(Cl)cc24)CCCC3)cc1` here?
Answer: The value was inactive: -9.18%.

Question: Which “activity change, positive = activation” value does the source give for `O=C(NCCn1cc(SCc2ccccc2F)c2ccccc21)c1cccs1` here?
Answer: Its value is inactive: -19.6%.

Question: For `CCS(=O)(=O)NCC(c1ccco1)N1CCN(c2ccccc2)CC1` (stereo not given), which “activity change, positive = activation” value is on record?
Answer: The value was inactive: -6.23%.

Question: For `CSc1nc(Nc2ccc(C)cc2)c(C#N)c(-c2ccccc2)n1`, which “activity change, positive = activation” value is on record?
Answer: Its value is inactive: -9.29%.

Question: Which activity change, positive = activation does the source give for `Cc1ccc2c(c1)C(c1ccccc1)N(C(=O)c1ccc(S(=O)(=O)N3CCCCC3)cc1)CC(=O)N2` (stereo not given) here?
Answer: Its activity change, positive = activation is inactive: 2.14% [at 11.5 µM, percent change from vehicle, -100% = no light].

Question: For `Cc1ccccc1NC(=O)C(=O)NCC1(c2ccccc2)CCCC1`, which “activity change, positive = activation” value is on record?
Answer: Its value is inactive: -15.9%.

Question: For `COc1ccc(Cl)cc1NC(=O)c1cnc(SC)nc1-c1ccccc1`, which “activity change, positive = activation” value is on record?
Answer: Its value is inactive: -24.4%.

Question: With `CCN1CCN(c2ncc3c(n2)CCN(Cc2sccc2C)C3)CC1` as the compound, how does the “activity change, positive = activation” value read?
Answer: The value was inactive: -10.7%.

Question: Which “activity change, positive = activation” value does the source give for `CCOc1ccc(Nc2nc(C)c(NC(=O)c3ccc(C)cc3)c(Nc3ccc(OCC)cc3)n2)cc1` here?
Answer: The value was inactive: -44.9%.

Question: Which “activity change, positive = activation” value does the source give for `O=C(CSc1nnc2scc(-c3ccc(Cl)cc3)n12)Nc1cccc(C(F)(F)F)c1` here?
Answer: Its value is inactive: -19%.

Question: For `COc1cc(NC(=O)CC(C)S(=O)(=O)c2ccc3c(c2)CCN3C(C)=O)cc(OC)c1OC` (stereo not given), which “activity change, positive = activation” value is on record?
Answer: Its value is inactive: -7.66%.

Question: With `Cc1ccc(NC(=O)CN(C)S(=O)(=O)c2cccc3cccnc23)cc1F` as the compound, how does the “activity change, positive = activation” value read?
Answer: The value was inactive: -16.1%.

Question: With `CCOC(=O)Cc1ccc(NC(=O)N2CCc3c(sc4c3CCCC4)C2c2ccc(F)cc2)cc1` (stereo not given) as the compound, how does the “activity change, positive = activation” value read?
Answer: Its value is inactive: 0%.

Question: For `COc1ccc(Cl)cc1Nc1nc2ccc(C(=O)c3ccccc3)cc2n2cnnc12`, which “activity change, positive = activation” value is on record?
Answer: Its value is inactive: 25.6%.

Question: Which “activity change, positive = activation” value does the source give for `CCn1c(=O)c2cc(C(=O)N3CCN(c4cccc(OC)c4)CC3)sc2c2ccccc21` here?
Answer: Its value is inactive: -36.3%.

Question: For `CN(CC(=O)Nc1ccc(Cl)cc1F)S(=O)(=O)c1ccc2c(c1)n(C)c(=O)c(=O)n2C`, which “activity change, positive = activation” value is on record?
Answer: Its value is inactive: -19.4%.
